The record followed here is paper PMC12820563, “FoxP3 forms a head-to-head dimer in vivo and stabilizes its multimerization on adjacent microsatellites”.

The other results are listed elsewhere or left out.

The test deals with T1, MBP-FoxP1dN (Mus musculus, UniProt P58462 326-579).
T1 sequence: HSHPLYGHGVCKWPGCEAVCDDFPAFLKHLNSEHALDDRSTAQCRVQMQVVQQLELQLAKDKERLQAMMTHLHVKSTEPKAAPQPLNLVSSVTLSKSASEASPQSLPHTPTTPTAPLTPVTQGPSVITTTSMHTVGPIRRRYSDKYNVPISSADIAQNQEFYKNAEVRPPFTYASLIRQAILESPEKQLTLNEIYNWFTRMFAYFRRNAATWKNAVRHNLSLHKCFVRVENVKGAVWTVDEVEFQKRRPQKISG
Put plainly: PD-seq (MBP pull-down with sequencing); 20 mM Tris-HCl pH 7.5, 100 mM NaCl, 1.5 mM MgCl2, 0.4 uM protein, 0.1 uM dsDNA library, 30 min, room temperature, amylose pull-down; high values mean tight binding. The note with it: protein: recombinant; tags: His6-MBP; chain copies: 2; dsDNA, one strand shown. The gist of the method:
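Binding is the reads-per-million enrichment of pull-down relative to input, pooled across replicates. For this, 0.4 µM His6-MBP-tagged mouse FoxP3 or FoxP1 fragment lacking the N-terminus, made in E. coli, was incubated with 0.1 µM Klenow-filled double-stranded degenerate DNA library for 30 min at room temperature in Tris pH 7.5 buffer with NaCl and MgCl2. Complexes bound to amylose resin were washed three times before proteinase K released the DNA for PCR barcoding and Illumina sequencing.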
“GATGATTGTTCTCCCAGCTGATGAATTTAGCGGTTCGAGTAAACAAATTTTCCTAATCTTTCTGTTCAAGCGCCATCTAC”: the binding signal was 0.874 RPM ratio (pull-down/input).
As for “GATGATTGTTCTCCCAGCTGATGAATTGCGTATGTCGAGTAAACAAATTTTCCTAATCTTTCTGTTCAAGCGCCATCTAC”, the binding signal is 1.2 RPM ratio (pull-down/input).
With “GATGATTGTTCTCCCAGCTGATGAATTAGGGGAGTCGAGTAAACAAATTTTCCTAATCTTTCTGTTCAAGCGCCATCTAC”, the binding signal was 0.752 RPM ratio (pull-down/input).
In the case of “GATGATTGTTCTCCCAGCTGATGAATTACCTTCATCGAGTAAACAAATTTTCCTAATCTTTCTGTTCAAGCGCCATCTAC”, the binding signal is 1.01 RPM ratio (pull-down/input).
“GATGATTGTTCTCCCAGCTGATGAATTGAAGGCATCGAGTAAACAAATTTTCCTAATCTTTCTGTTCAAGCGCCATCTAC”: the binding signal is 1.03 RPM ratio (pull-down/input).
As to “GATGATTGTTCTCCCAGCTGATGAATTGATCGGGTCGAGTAAACAAATTTTCCTAATCTTTCTGTTCAAGCGCCATCTAC”, the binding signal is 0.834 RPM ratio (pull-down/input).
As for “GATGATTGTTCTCCCAGCTGATGAATTCTTCGTCTCGAGTAAACAAATTTTCCTAATCTTTCTGTTCAAGCGCCATCTAC”, the binding signal was 0.829 RPM ratio (pull-down/input).
For the sequence “GATGATTGTTCTCCCAGCTGATGAATTGCATGTGTCGAGTAAACAAATTTTCCTAATCTTTCTGTTCAAGCGCCATCTAC”, the binding signal is 1.18 RPM ratio (pull-down/input).
For “GATGATTGTTCTCCCAGCTGATGAATTAATTGCATCGAGTAAACAAATTTTCCTAATCTTTCTGTTCAAGCGCCATCTAC”, the binding signal is 1.4 RPM ratio (pull-down/input).
For “GATGATTGTTCTCCCAGCTGATGAATTCCCGTCATCGAGTAAACAAATTTTCCTAATCTTTCTGTTCAAGCGCCATCTAC”, the binding signal is 0.881 RPM ratio (pull-down/input).
For the sequence “GATGATTGTTCTCCCAGCTGATGAATTAGTGCATTCGAGTAAACAAATTTTCCTAATCTTTCTGTTCAAGCGCCATCTAC”, the binding signal was 1.42 RPM ratio (pull-down/input).
As to “GATGATTGTTCTCCCAGCTGATGAATTACCAAATTCGAGTAAACAAATTTTCCTAATCTTTCTGTTCAAGCGCCATCTAC”, the binding signal is 1.18 RPM ratio (pull-down/input).
Consider “GATGATTGTTCTCCCAGCTGATGAATTGTAGTTATCGAGTAAACAAATTTTCCTAATCTTTCTGTTCAAGCGCCATCTAC”, for which the binding signal was 1.39 RPM ratio (pull-down/input).
For “GATGATTGTTCTCCCAGCTGATGAATTATAGTGTTCGAGTAAACAAATTTTCCTAATCTTTCTGTTCAAGCGCCATCTAC”, the binding signal was 1.2 RPM ratio (pull-down/input).
The figure for “GATGATTGTTCTCCCAGCTGATGAATTGTAGTTCTCGAGTAAACAAATTTTCCTAATCTTTCTGTTCAAGCGCCATCTAC” is 0.975 RPM ratio (pull-down/input).
“GATGATTGTTCTCCCAGCTGATGAATTACCGTTCTCGAGTAAACAAATTTTCCTAATCTTTCTGTTCAAGCGCCATCTAC”: the binding signal was 0.958 RPM ratio (pull-down/input).
Take “GATGATTGTTCTCCCAGCTGATGAATTAAGGCCATCGAGTAAACAAATTTTCCTAATCTTTCTGTTCAAGCGCCATCTAC”: the binding signal was 0.923 RPM ratio (pull-down/input).
The same measure for “GATGATTGTTCTCCCAGCTGATGAATTCGCCAGTTCGAGTAAACAAATTTTCCTAATCTTTCTGTTCAAGCGCCATCTAC”: 0.807 RPM ratio (pull-down/input).
In the case of “GATGATTGTTCTCCCAGCTGATGAATTCTGCCCGTCGAGTAAACAAATTTTCCTAATCTTTCTGTTCAAGCGCCATCTAC”, the binding signal was 0.815 RPM ratio (pull-down/input).
As to “GATGATTGTTCTCCCAGCTGATGAATTGCTGTGTTCGAGTAAACAAATTTTCCTAATCTTTCTGTTCAAGCGCCATCTAC”, the binding signal was 1.53 RPM ratio (pull-down/input).
“GATGATTGTTCTCCCAGCTGATGAATTTCCCTGGTCGAGTAAACAAATTTTCCTAATCTTTCTGTTCAAGCGCCATCTAC”: the binding signal was 0.791 RPM ratio (pull-down/input).
Take “GATGATTGTTCTCCCAGCTGATGAATTAGCCCAGTCGAGTAAACAAATTTTCCTAATCTTTCTGTTCAAGCGCCATCTAC”: the binding signal is 0.795 RPM ratio (pull-down/input).
For “GATGATTGTTCTCCCAGCTGATGAATTTCGGAGGTCGAGTAAACAAATTTTCCTAATCTTTCTGTTCAAGCGCCATCTAC”, the binding signal was 0.762 RPM ratio (pull-down/input).
Take “GATGATTGTTCTCCCAGCTGATGAATTGAGAGGCTCGAGTAAACAAATTTTCCTAATCTTTCTGTTCAAGCGCCATCTAC”: the binding signal was 0.884 RPM ratio (pull-down/input).
Regarding “GATGATTGTTCTCCCAGCTGATGAATTATCCGAGTCGAGTAAACAAATTTTCCTAATCTTTCTGTTCAAGCGCCATCTAC”, the binding signal was 0.967 RPM ratio (pull-down/input).
As for “GATGATTGTTCTCCCAGCTGATGAATTGGATCCTTCGAGTAAACAAATTTTCCTAATCTTTCTGTTCAAGCGCCATCTAC”, the binding signal is 0.821 RPM ratio (pull-down/input).
The figure for “GATGATTGTTCTCCCAGCTGATGAATTCGGCGATTCGAGTAAACAAATTTTCCTAATCTTTCTGTTCAAGCGCCATCTAC” is 0.834 RPM ratio (pull-down/input).
The same measure for “GATGATTGTTCTCCCAGCTGATGAATTTCTCGATTCGAGTAAACAAATTTTCCTAATCTTTCTGTTCAAGCGCCATCTAC”: 0.855 RPM ratio (pull-down/input).
Consider “GATGATTGTTCTCCCAGCTGATGAATTATTGCCGTCGAGTAAACAAATTTTCCTAATCTTTCTGTTCAAGCGCCATCTAC”, for which the binding signal was 1.09 RPM ratio (pull-down/input).
On to “GATGATTGTTCTCCCAGCTGATGAATTAAGCCTATCGAGTAAACAAATTTTCCTAATCTTTCTGTTCAAGCGCCATCTAC”, for which the binding signal is 0.873 RPM ratio (pull-down/input).
In the case of “GATGATTGTTCTCCCAGCTGATGAATTACCTTAGTCGAGTAAACAAATTTTCCTAATCTTTCTGTTCAAGCGCCATCTAC”, the binding signal was 0.91 RPM ratio (pull-down/input).
With “GATGATTGTTCTCCCAGCTGATGAATTACAGCGTTCGAGTAAACAAATTTTCCTAATCTTTCTGTTCAAGCGCCATCTAC”, the binding signal is 1.07 RPM ratio (pull-down/input).
